Publication PMC6737914
These are yes or no findings as the source states them, for the method shown. Binding seen in cells or lysates may run through a third protein. Some binding calls cover weakened binding; strength is not graded here.

Sequences of proteins named here, by UniProt entry; tags and fusion partners are left off. A change or cut given only in a name is not applied to a line headed by its entry. A line that says so, or that is headed by a name, gives the form on record, which may keep a tag or linker. Residues count along the entry.
UniProt P38682: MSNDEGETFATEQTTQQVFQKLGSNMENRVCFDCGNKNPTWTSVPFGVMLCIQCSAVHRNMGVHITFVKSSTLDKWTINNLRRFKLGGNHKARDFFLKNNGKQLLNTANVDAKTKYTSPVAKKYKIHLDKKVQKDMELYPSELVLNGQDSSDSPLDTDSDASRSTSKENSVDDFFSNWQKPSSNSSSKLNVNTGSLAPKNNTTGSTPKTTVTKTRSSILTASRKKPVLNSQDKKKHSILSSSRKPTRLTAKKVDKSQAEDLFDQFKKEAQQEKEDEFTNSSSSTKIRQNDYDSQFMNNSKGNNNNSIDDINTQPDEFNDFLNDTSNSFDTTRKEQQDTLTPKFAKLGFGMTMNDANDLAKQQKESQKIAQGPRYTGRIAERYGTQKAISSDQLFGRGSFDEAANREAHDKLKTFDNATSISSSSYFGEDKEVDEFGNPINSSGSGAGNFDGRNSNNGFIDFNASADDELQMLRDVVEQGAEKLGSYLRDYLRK
MBP fusion of the Glo3 BoCCS domain alone (aa 137–375): residues 137-375 of P38682
MBP fusion of Glo3 (aa 296–459): residues 296-459 of P38682
GFP-tagged Glo3 S389, 398A (P38682, form named): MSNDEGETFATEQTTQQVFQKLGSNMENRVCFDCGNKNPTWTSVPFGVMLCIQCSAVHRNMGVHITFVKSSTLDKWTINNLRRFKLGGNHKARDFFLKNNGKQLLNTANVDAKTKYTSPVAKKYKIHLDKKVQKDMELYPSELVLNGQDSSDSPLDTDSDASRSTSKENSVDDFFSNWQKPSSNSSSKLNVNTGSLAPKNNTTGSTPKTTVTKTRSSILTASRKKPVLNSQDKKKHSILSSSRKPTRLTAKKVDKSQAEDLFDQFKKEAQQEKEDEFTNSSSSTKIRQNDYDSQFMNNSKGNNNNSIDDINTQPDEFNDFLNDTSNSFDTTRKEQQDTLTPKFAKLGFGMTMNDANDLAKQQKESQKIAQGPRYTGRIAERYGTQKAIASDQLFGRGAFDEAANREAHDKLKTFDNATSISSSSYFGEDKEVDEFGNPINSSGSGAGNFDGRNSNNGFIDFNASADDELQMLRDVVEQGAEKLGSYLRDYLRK
GFP-tagged Glo3 S389, 398D (P38682, form named): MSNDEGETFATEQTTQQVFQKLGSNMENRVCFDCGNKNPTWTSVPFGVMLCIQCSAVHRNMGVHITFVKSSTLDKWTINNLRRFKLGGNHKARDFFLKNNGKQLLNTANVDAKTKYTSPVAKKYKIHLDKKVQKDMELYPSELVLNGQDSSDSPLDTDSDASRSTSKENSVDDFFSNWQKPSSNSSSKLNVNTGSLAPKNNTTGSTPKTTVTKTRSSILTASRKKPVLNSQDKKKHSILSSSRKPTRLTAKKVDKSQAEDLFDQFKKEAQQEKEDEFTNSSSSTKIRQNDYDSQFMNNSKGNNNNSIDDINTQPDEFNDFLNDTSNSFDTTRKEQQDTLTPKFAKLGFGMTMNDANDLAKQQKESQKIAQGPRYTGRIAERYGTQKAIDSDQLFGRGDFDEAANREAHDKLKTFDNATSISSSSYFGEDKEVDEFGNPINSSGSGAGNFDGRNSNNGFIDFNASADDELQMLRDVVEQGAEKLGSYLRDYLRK
UniProt P53622: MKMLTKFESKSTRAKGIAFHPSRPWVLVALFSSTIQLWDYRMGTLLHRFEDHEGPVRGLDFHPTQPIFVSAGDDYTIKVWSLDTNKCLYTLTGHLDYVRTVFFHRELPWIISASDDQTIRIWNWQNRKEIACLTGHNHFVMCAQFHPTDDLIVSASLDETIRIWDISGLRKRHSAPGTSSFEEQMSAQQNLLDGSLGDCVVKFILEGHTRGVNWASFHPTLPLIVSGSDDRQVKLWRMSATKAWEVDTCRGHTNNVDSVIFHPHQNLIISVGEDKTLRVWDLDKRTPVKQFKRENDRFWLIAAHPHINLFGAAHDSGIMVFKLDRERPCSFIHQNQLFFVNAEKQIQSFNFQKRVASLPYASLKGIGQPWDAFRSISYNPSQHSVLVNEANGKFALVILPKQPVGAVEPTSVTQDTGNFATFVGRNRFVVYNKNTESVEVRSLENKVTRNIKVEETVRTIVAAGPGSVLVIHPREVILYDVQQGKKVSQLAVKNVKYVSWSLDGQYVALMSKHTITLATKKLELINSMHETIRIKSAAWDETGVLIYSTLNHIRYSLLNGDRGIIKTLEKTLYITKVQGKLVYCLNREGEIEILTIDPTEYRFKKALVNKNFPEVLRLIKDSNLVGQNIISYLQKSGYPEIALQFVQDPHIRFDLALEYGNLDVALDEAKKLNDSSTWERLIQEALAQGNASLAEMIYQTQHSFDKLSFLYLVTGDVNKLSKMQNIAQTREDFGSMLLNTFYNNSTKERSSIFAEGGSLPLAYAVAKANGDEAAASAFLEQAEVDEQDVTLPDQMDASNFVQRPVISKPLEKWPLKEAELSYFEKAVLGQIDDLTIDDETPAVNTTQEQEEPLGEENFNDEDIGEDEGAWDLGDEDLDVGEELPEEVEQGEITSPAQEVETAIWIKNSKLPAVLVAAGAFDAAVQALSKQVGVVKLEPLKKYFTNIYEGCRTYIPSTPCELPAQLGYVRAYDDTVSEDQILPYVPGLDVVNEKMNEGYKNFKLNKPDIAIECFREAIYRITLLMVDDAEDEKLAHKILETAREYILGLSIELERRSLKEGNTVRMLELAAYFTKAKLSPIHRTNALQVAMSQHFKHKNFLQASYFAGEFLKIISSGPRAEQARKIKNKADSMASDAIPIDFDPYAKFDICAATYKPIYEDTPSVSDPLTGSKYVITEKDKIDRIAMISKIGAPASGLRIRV

What was measured:
[1] = molecular target: GFP-tagged Glo3 (S. cerevisiae) (UniProt P38682); assay: co-IP; affinity chromatography of GFP-tagged proteins on µMACS GFP micro-beads from yeast cytosol (lysis buffer without detergent: 25 mM Tris-HCl pH 7.4, 50 mM KCl, 10 mM MgCl2, 5% glycerol), 30 min 4°C; eluates on western blots probed for coat subunits
[2] = molecular target: GFP-tagged Glo3 S389, 398A (S. cerevisiae) (UniProt P38682); assay: co-IP; affinity chromatography of GFP-tagged Glo3 or its variants on µMACS GFP micro-beads from detergent extracts (1% Triton X-100) of Δglo3 or Δgcs1 strains; western blots for COPI and Gcs1
[3] = molecular target: GFP-tagged Glo3 (S. cerevisiae) (UniProt P38682); assay: as above
[4] = molecular target: GFP-tagged Glo3 S389, 398D (S. cerevisiae) (UniProt P38682); assay: as above
[5] = molecular target: MBP fusion of Glo3 (aa 296–459) (S. cerevisiae) (UniProt P38682); assay: pull-down; binding of coatomer from yeast lysates to MBP fusion proteins of Glo3; bound fraction eluted, western blot with coat antiserum; only the target purified
[6] = molecular target: MBP fusion of the Glo3 BoCCS domain alone (aa 137–375) (S. cerevisiae) (UniProt P38682); assay: as above

- binding [1]: binds
- binding [2]: binds
- binding [3]: binds
- binding [4]: binds
- binding [5]: no binding
- binding [6]: binds
Substance: COPI coat (coatomer), heptamer of α, β′, ε, β, γ, δ and ζ subunits (from UniProt P53622 1-1201; P41811 1-889; P40509 1-296; P41810 1-973; P32074 1-935; P43621 1-546; P53600 1-189) (complex)
